Reference: article PMC12820563
The other results are listed elsewhere or left out. The list includes weakly bound sequences.

These sequences were tested against T1, MBP-FoxP3dN (UniProt Q99JB6) (assay: PD-seq (MBP pull-down with sequencing)). Settings: 20 mM Tris-HCl pH 7.5, 100 mM NaCl, 1.5 mM MgCl2, 0.4 uM protein, 0.1 uM dsDNA library, 30 min, room temperature, amylose pull-down; high values mean tight binding; double strand, one strand shown.
T1 sequence: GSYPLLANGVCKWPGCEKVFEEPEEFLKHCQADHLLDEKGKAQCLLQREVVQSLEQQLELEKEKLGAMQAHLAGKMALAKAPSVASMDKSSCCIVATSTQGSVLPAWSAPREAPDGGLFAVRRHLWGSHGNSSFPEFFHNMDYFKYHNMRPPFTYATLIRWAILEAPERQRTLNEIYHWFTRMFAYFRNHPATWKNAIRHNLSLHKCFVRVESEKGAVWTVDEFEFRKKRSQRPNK

Row | Sequence | binding signal (RPM ratio (pull-down/input))
1 | GATGATTGTTCTCCCAGCTGATGAATTCCGCGAGTCGAGTAAACAAATTTTCCTAATCTTTCTGTTCAAGCGCCATCTAC | 0.749
2 | GATGATTGTTCTCCCAGCTGATGAATTCGTATTTTCGAGTAAACAAATTTTCCTAATCTTTCTGTTCAAGCGCCATCTAC | 1.23
3 | GATGATTGTTCTCCCAGCTGATGAATTGTTTGTATCGAGTAAACAAATTTTCCTAATCTTTCTGTTCAAGCGCCATCTAC | 7.73
4 | GATGATTGTTCTCCCAGCTGATGAATTAATTGGCTCGAGTAAACAAATTTTCCTAATCTTTCTGTTCAAGCGCCATCTAC | 1.53
5 | GATGATTGTTCTCCCAGCTGATGAATTCGACAGTTCGAGTAAACAAATTTTCCTAATCTTTCTGTTCAAGCGCCATCTAC | 0.433
6 | GATGATTGTTCTCCCAGCTGATGAATTGGTACACTCGAGTAAACAAATTTTCCTAATCTTTCTGTTCAAGCGCCATCTAC | 0.74
7 | GATGATTGTTCTCCCAGCTGATGAATTTTAACTCTCGAGTAAACAAATTTTCCTAATCTTTCTGTTCAAGCGCCATCTAC | 0.434
8 | GATGATTGTTCTCCCAGCTGATGAATTTTCTAGTTCGAGTAAACAAATTTTCCTAATCTTTCTGTTCAAGCGCCATCTAC | 0.281
9 | GATGATTGTTCTCCCAGCTGATGAATTTCGCTCCTCGAGTAAACAAATTTTCCTAATCTTTCTGTTCAAGCGCCATCTAC | 0.836
10 | GATGATTGTTCTCCCAGCTGATGAATTGGGTCCGTCGAGTAAACAAATTTTCCTAATCTTTCTGTTCAAGCGCCATCTAC | 0.276
11 | GATGATTGTTCTCCCAGCTGATGAATTGGCTCCCTCGAGTAAACAAATTTTCCTAATCTTTCTGTTCAAGCGCCATCTAC | 0.272
12 | GATGATTGTTCTCCCAGCTGATGAATTGTACCCGTCGAGTAAACAAATTTTCCTAATCTTTCTGTTCAAGCGCCATCTAC | 0.337
13 | GATGATTGTTCTCCCAGCTGATGAATTTGGTCGGTCGAGTAAACAAATTTTCCTAATCTTTCTGTTCAAGCGCCATCTAC | 0.329
14 | GATGATTGTTCTCCCAGCTGATGAATTCACATACTCGAGTAAACAAATTTTCCTAATCTTTCTGTTCAAGCGCCATCTAC | 0.535
15 | GATGATTGTTCTCCCAGCTGATGAATTACGTAGCTCGAGTAAACAAATTTTCCTAATCTTTCTGTTCAAGCGCCATCTAC | 0.667
16 | GATGATTGTTCTCCCAGCTGATGAATTTGCGACGTCGAGTAAACAAATTTTCCTAATCTTTCTGTTCAAGCGCCATCTAC | 0.686

Row | Sequence | binding signal (RPM ratio (pull-down/input))
17 | GATGATTGTTCTCCCAGCTGATGAATTCAACCACTCGAGTAAACAAATTTTCCTAATCTTTCTGTTCAAGCGCCATCTAC | 0.39
18 | GATGATTGTTCTCCCAGCTGATGAATTTCTTGCTTCGAGTAAACAAATTTTCCTAATCTTTCTGTTCAAGCGCCATCTAC | 0.333
19 | GATGATTGTTCTCCCAGCTGATGAATTCTCCAAATCGAGTAAACAAATTTTCCTAATCTTTCTGTTCAAGCGCCATCTAC | 0.202
20 | GATGATTGTTCTCCCAGCTGATGAATTTGTTTCATCGAGTAAACAAATTTTCCTAATCTTTCTGTTCAAGCGCCATCTAC | 5.47
21 | GATGATTGTTCTCCCAGCTGATGAATTTTTAGAATCGAGTAAACAAATTTTCCTAATCTTTCTGTTCAAGCGCCATCTAC | 0.201
22 | GATGATTGTTCTCCCAGCTGATGAATTAGGCGGTTCGAGTAAACAAATTTTCCTAATCTTTCTGTTCAAGCGCCATCTAC | 0.736
23 | GATGATTGTTCTCCCAGCTGATGAATTTGGTGGGTCGAGTAAACAAATTTTCCTAATCTTTCTGTTCAAGCGCCATCTAC | 1.57
24 | GATGATTGTTCTCCCAGCTGATGAATTGCCCAACTCGAGTAAACAAATTTTCCTAATCTTTCTGTTCAAGCGCCATCTAC | 0.42
25 | GATGATTGTTCTCCCAGCTGATGAATTACGACAATCGAGTAAACAAATTTTCCTAATCTTTCTGTTCAAGCGCCATCTAC | 0.598
26 | GATGATTGTTCTCCCAGCTGATGAATTGCAGACGTCGAGTAAACAAATTTTCCTAATCTTTCTGTTCAAGCGCCATCTAC | 0.531
27 | GATGATTGTTCTCCCAGCTGATGAATTTAGGGTATCGAGTAAACAAATTTTCCTAATCTTTCTGTTCAAGCGCCATCTAC | 1.02
28 | GATGATTGTTCTCCCAGCTGATGAATTCCGAGCCTCGAGTAAACAAATTTTCCTAATCTTTCTGTTCAAGCGCCATCTAC | 0.427
29 | GATGATTGTTCTCCCAGCTGATGAATTTTCTCCATCGAGTAAACAAATTTTCCTAATCTTTCTGTTCAAGCGCCATCTAC | 0.266
30 | GATGATTGTTCTCCCAGCTGATGAATTTTTTTATTCGAGTAAACAAATTTTCCTAATCTTTCTGTTCAAGCGCCATCTAC | 0.313
31 | GATGATTGTTCTCCCAGCTGATGAATTACCTTGGTCGAGTAAACAAATTTTCCTAATCTTTCTGTTCAAGCGCCATCTAC | 0.26
